The source gives no read counts; variants with many changes may rest on few reads.
B1: CPEB3 Ribozyme (parent)
chain: UAACAGGGGGCCACAGCAGAAGCGUUCACGUCGCAGCCCCUGUCAGAUUCUGGUGAAUCUGCGAAUUCUGCUGUAUAUCUC

Variants of: B1
Assay: self-cleavage, relative activity (ratio to wild type); higher = more cleavage; in vitro, sequencing
Summary of the method: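 After error-prone PCR and barcoding, CPEB3 ribozyme mutant libraries were transcribed with T7 RNA polymerase at 37°C for 5 hours, then given 15 min with DNase I before an EDTA stop, and they cleaved during both steps. Reverse transcription with template switching preceded Illumina sequencing. Relative activity divides a variant's cleaved/total read fraction by the unmutated ribozyme's. At least 5 reads were required per variant, and three batches were averaged.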

Variant	self-cleavage
A5G U41C U43C A45U A64U	0.07
A5G U31C A35G G46A U51C A56G	0.13
A5G U25A U41A U43A U49C U72C U78C	0.1
A5G U25C A45G U51A U60C A64G U80A	0.17
A5G U26A U31C	0.41
A5G G9A U69C	0.14
A5G G30U C39A U51A	0.2
A5U A13G A18G U58A U60A A64G	0.09
A5U U25A U26A A57G	0.17
A5G U60C G61A	0.31
A5G G8U A20G A77U	0.35
A5G U43C A65G G70A	0.22
A5U A56U U58C	0.35
A5G U31A U67A U69A	0.12
A5G U26A A35G C79A	1.15
A5U U26A U31C A65G	0.17
A5G U25C A56G U60C U67C U72A	0.77
A5U C17A U25C U80A	0.09
A5U A20G U54C U69A	0.47
A5G U43A U60C	0.35
A5U A21G U78G	0.95
A5U A20G A35U G52U A64U	0.16
A5U U26A G42C U54C A64U A75U U80A	0.1
A5U A18G A20G U51A A64U A75G	0.14

Variant	self-cleavage
A5G U67A C71U	0.22
A5G G42A C44G U72C	0.62
A5G G24U U25A A28U A57G U78C	0.08
A5G U26C U41A A56G	0.35
A5U U26G C39U U74A	0.22
A5U C14U A20G C29U U49A A65G	0.08
A5G U25C A64G	0.3
A5U A20G A28G G42A A56U U69C U78C	0.09
A5U U26G U51C	0.39
A5U A15G A35U U41A U54A	0.12
A5U U25C A28G C39U U54C U69A U72C	0.16
A5G U26C G30A U41C A65G U66C C68U	0.08
A5U G9A A13U A15C A18U	0.62
A5U A18G U41C U72A	0.47
A5G U60C A75U	0.52
A5U A13U C17U A21G U31C U60A	0.15
A5G G33A U66C A75G	0.07
A5U A13U A20G C32U U43C G61C U80A	0.1
A5U G9A C29U U49C U54C A75U	0.05
A5U A57G U69C U72C C81U	0.22
A5G U48C U67A U78C	0.17
A5U G10U U26G U49C G52A U67A	0.05
A5U C17U G70A U72A	1.23
A5U G10A A15G G24A C32A U72C	0.46

Variant	self-cleavage
A5U C29U A35G U60C U78C	0.43
A5G U60C U72A	0.26
A5G U60C U72C	0.13
A5G G9A A13G A28U U66C U69C C71U	0.03
A5G G10C A13G A20G A47U U48C A65U	0.1
A5U A15U U60G	0.4
A5U A15G A21U A35G A77G	0.38
A5U C12A A28G	0.42
A5G U26C A28G U49C U51C U67A	0
A5U A13U U51A U54A U74A	1.2
A5U A13U U26A A47U U51C A56G C79A	0.11
A5U A35C U54C U80C	0.89
A5G U25C U43A U51G	0.34
A5G G16A A20G A28U U41C U67C G70C	0.13
A5G U54C U72A	0.61
A5U U31C A47G U49C A57G U60C A77U	0
A5G G19A A45C	0.15
A5U C12U A13G G53A A64U	0.29
A5G U60C U67C U69A	0.18
A5G G9U A45G	0.27
A5U A18G U41C U49C U78C	0.3
A5G U41A G53A U69A	0.28
A5U C12U A15U A20U U60A A64U A77U	0.08
A5G U41C U54C G70A U72A A77G	0.02

Variant	self-cleavage
A5U A13G U69A U76A	0.7
A5G G55U U76C A77G	0.43
A5G U48C A56U	0.21
A5G U26C A28U U66C	0.26
A5G U48C A75G	0.26
A5U A15U A21U U25C U48C C79U	0.44
A5G U26C U49C U72A	0.08
A5G U25C C27A U31A A35G A45G A57G	0.56
A5G G9C A21G A47U G53U U58C	0.22
A5U A28U A45G U69C U78G	0.68
A5U U25C C38G U41C U67C	0.06
A5U A28C U51C	0.53
A5U A13G A35G G63A U69C	0.34
A5U A21U A57G A64G U67C C79A	0.12
A5G U25C A45G	0.39
A5U U26C A35G U80A	1.23
A5G U25A C34A A45G A75G	0.19
A5U G10U C29U U51G G53A	0.06
A5U U25A U69C U74A	0.08
A5G G19U U25G	0.33
A5U C37A A45U U66C	0.09
A5U A13U A20G U43A U54C C68U	1.11
A5U A15C U41C A57G	0.61
A5G G10C A35G C40A A47C U74C	0.08

Variant	self-cleavage
A5U A15G A47G	1.01
A5U A20G U58A C62A U69A	0.22
A5G U69C A75U U78C	0.21
A5U G10A G24A C27U A57C U60C U76C	0.04
A5G U25C U26A C27U	0.28
A5U A20G U26C A57G A77G U80C	0.21
A5G U26G A56G U66A U69A	0.02
A5U A20U U54C A57G	0.24
A5G U41A U43G U49C	0.45
A5U A18G A35G A57G A64U U78A	0.57
A5U C11A A21G U69A U72C	0.03
A5G G24A A56U U72A	0.16
A5U G9A U54A U67C	0.16
A5U C32A U41C U51C	0.24
A5G G10A U78C	0.15
A5U A18U A28G U31C U51C U66C	0.08
A5U A28G U51C U74C	0.79
A5G G9A U51A U72A	0.1
A5U A21G C50A U76G	0.43
A5U U26A C34G A57G A75G	0.17
A5U A13C A45G	1.02
A5G G9C A20U U49C U51A A77G	0.23
A5U C12U A15G U72A	0.48
A5U A18G U41A U48A	0.39

Variant	self-cleavage
A5U A13G C50A	0.94
A5U G7C U26C A28G C39A A45G U76A	0.05
A5G G33A A45G U69C G70C	0.1
A5U A21G C50U A65U	0.12
A5U G7C A20G A21C U26C A28U	0.15
A5U A28G U80A	1.29
A5U A20G C32U A35U U43C G52A U60G	0.08
A5U A21U U41C U51A U67A G70A U72A	0.07
A5U G10A U51C U66A	0.11
A5G U26C G46A A47G U69C	0.42
A5G U26A U69C	0.17
A5U U25C C62U	0.23
A5G G9C C40U U54A U80C	0.4
A5U A18U A47G U69C U80C	0.52
A5G U48C A57G U72C	0.81
A5U G9U U69C U74C	0.08
A5G U41A A45G A64U U69C	0.31
A5U A20C U60C U69A	0.2
A5U C34A G55A A77C	0.08
A5U G9A A28U U76C	0.22
A5U G7U A15G U31C A57G	0.39
A5G G46U G61C	0.25
A5U A18U A45G	0.49
A5U A18G A20G U48C U49A	0.31

Variant	self-cleavage
A5U A35U U49A	0.38
A5G U51A U54C U76C	0.59
A5U A56G U67G U80A	0.34
A5U A13G C40U U54A A65U	0.14
A5G U58C A64G U67C	0.16
A5U U26C U51A A56G U66C U76C U80G	0.16
A5G G19C U43C U54A U58G C62U U80C	0.18
A5U A28G C40A	0.16
A5G G8A G10A A13C U69A	0.11
A5G U31C U54A U80A	0.65
A5G U43C U51C U60A	0.39
A5G U51A A64U U69C U72C U78A	0.37
A5G U26C A57U A64G	0.47
A5G U48C U51A	0.43
A5G G9A A35G A56U U58C A65G	0.1
A5U C38U U58A	0.35
A5U A20G U48C U49A U69A	0.39
A5U G30A U41A	0.2
A5U A18C U43A U78A	0.19
A5G U25A U72C U74C	0.05
A5U U25C A28G	0.35
A5G G24U A35G U72C U80C	0.54
A5G G8A U48C A64U	0.07
